# Laboratory results as given in the supplement of paper PMC10126150.
# Sequences with one replicate were seen in a single cluster, so their values are uncertain.
# System: ATP
# Test: switch fluorescence ratio, 500 uM ATP over buffer (Cy3 cluster intensity, sum of 5 cycles each) (fold (ratio)); higher = stronger signal-on switching upon ATP binding; sequences stand for … in TCGTCGGCAGCGTCAGATGTGTATAAGAGACAGTTTTTTTTTTTTTTTTTTTTTTTTT…TC
# Conditions: aptamer strand: ATP DNA aptamer (quencher-CACCTGGGGGAGTATTGCGGAGGAAGG + anchor), 100 nM annealed; ATP concentration: 500 uM; one replicate
# Summary of the method: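 Per cluster, summed Cy3 intensity from the target cycles was divided by that from the buffer cycles to give the fluorescence ratio, then averaged per switch-domain sequence. Clusters outside 100-1000 RFU were excluded. The Cy3-labelled switching-strand clusters, on a modified Illumina MiSeq flow-cell, were annealed to 100 nM quencher-labelled ATP aptamer and imaged in selection buffer, then after 15 min with 500 uM ATP at 22 °C, for five cycles with NaOH stripping and re-annealing between them.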
# 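Also: ATP exposure 15 min at 22 °C before imaging.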
row,Sequence,switch fluorescence ratio
1,GGAAAAGTCT,0.992
2,GGGAGTCAAA,1.05
3,TGAAGACTTG,0.943
4,CGTGTAGGGT,1.07
5,TTTGTACCAG,1.05
6,ATTGTCGATT,1.02
7,GATCAATGGT,1.06
8,AACTGTCGAC,0.994
9,CTTCGGAAT,3.92
10,CACGGTAGTT,1.01
11,GTATTCTATT,1.01
12,GCCACACGTC,1
13,GAAACGTCTT,0.994
14,ACGAACGGGT,1.12
15,AGACTAGGAC,1.03
16,GGATCAGCGA,0.828
17,CAACGGTAGG,1.02
18,TCAAAAGTTA,0.982
19,CGGCAACCGA,0.979
20,CGACTGCTGG,1.05
21,CCGATTTTCT,0.993
22,TATGTGGCCT,1.04
23,CGAGGGACCT,1.08

row,Sequence,switch fluorescence ratio
1,ATACCCAGTA,1.01
2,CTTAATTGTG,1.02
3,GTGGATCAGT,1.03
4,ACGATATTTT,1.12
5,TGATCTGGTG,1.03
6,TAATAGTGCG,1
7,TGAATGGCGA,0.967
8,TTTCCACCCA,1.06
9,GCGATACAGA,1.09
10,CCCTGGGGAT,4.2
11,ATGGGATAAC,1.03
12,ACTTATATTT,0.983
13,TAATTCTGGA,1.02
14,GTAAGCCGCG,1.06
15,TTACTGGTG,1.19
16,TTCCATCTG,1.16
17,GTTGAGAAT,0.998
18,GTCCCCGTG,1.05
19,GGCAGTGGGG,0.992
20,ACGGTTCACA,1.13
21,CGACGGGTCG,1.02
22,GTAAGCTTGT,1.02
23,CGTGTGTAAA,1.06

row,Sequence,switch fluorescence ratio
1,GATTTATCCA,1.02
2,TGTTCGGGAG,0.974
3,ACTTTACGGA,1.3
4,AGTCAGTACA,1
5,GATCAGGTAC,1.06
6,TGCGGAGCGA,1.38
7,GGGAGTATCA,0.986
8,AATATTTGT,0.982
9,AATGACGCGA,1.75
10,GTAGAGCGTG,1
11,AGGATATGTT,0.98
12,TTCCAACACC,1.07
13,GCAGTCCTGA,1.02
14,TTTTGTTGGA,1
15,GGGGTTGCCC,0.991
16,CCTTCAAC,1.21
17,ACGAGGGA,1.08
18,AGAAAGAGAC,1.02
19,CACCGTAACG,1.2
20,ACTTGACGCT,1.07
21,GGCGCAACGC,1.24
22,TCGTATAATG,0.927
23,AGTGAAGCTC,0.987

row,Sequence,switch fluorescence ratio
1,TGTTCGTATG,0.962
2,GAATAGCCTT,1.02
3,TGTCTGTATG,1.03
4,TACGGGGAAG,1.04
5,TGGCGATATG,0.992
6,TGGTTAGGCT,1.05
7,AGGTTTGG,0.967
8,TTCTCGTAAT,1.33
9,GGTGACTAAT,0.945
10,GACGCGGATA,1.58
11,GGGGGCCGAC,1.01
12,TTTTGATT,1.04
13,GTTCTACTGT,0.984
14,GGTCGGGAGC,1.03
15,CTTTTAAGCC,1.01
16,GCGATGACGC,1
17,TACTCATATG,1.02
18,CCAATGCTGG,1.05
19,GTTACGGCGC,1.09
20,GAATTCCCAA,1.03
21,TGGGACCCCG,1.04
22,TTTATTTATC,1.01
23,TCCGCATCA,1.01

row,Sequence,switch fluorescence ratio
1,TTATGGGGCT,1.05
2,AATGTCAGTT,0.978
3,GATACCCCA,1.09
4,GATAGATCTG,1.04
5,GATGCTCTAA,1.02
6,ATGAACTCTG,1
7,TCAGGTTGGT,1.15
8,TGAGTGACAG,1.03
9,AGCCTCCGGA,1.28
10,GCAAATGCGC,1.06
11,CAAGGTAACA,0.989
12,ATACGGGTTG,1.04
13,GATTAGTAGG,0.953
14,ACGCGTAATC,1.05
15,AATTATGAGG,0.979
16,CCGGCGGTCC,1.1
17,CCGGGTCTAG,1.23
18,GAGTTAGACT,0.966
19,TTAGCTGGTA,1.03
20,TACCTTGCGT,1.01
21,GAATCAGAAT,1.01
22,ACAATGTGGC,1.04
23,AAGGCAAAGT,1

row,Sequence,switch fluorescence ratio
1,TAGACACTTT,0.989
2,TTGAGGGTCT,1
3,AGGTACCAAA,1.03
4,TCCTGCGGGT,1.02
5,TCGGTCACA,1
6,TTGTTTCTG,0.958
7,TTATCATGTA,1
8,AACATTAGTT,1.01
9,TAGAAATTAG,1.02
10,ACTCACCTCC,1.55
11,CTGAAAAAGA,1.01
12,TCCGGTCACT,1.07
13,GCGTTACTTC,1.07
14,ACTAAAATTC,1.22
15,CATGGGATTA,0.963
16,AGATAAGCGG,1.02
17,GTAATTTTTA,0.982
18,AGGGTAAAT,1.01
19,TACGACCCTC,1.37
20,TCCTAGTCGC,1.12
21,CCTTTATGCC,1.08
22,TGCCTCCCGC,2.11
23,GGCAGTAGCG,1.04

row,Sequence,switch fluorescence ratio
1,CGATAGTAAT,1.17
2,TACATGGATC,0.963
3,GTATAGAGCC,0.983
4,TGCGCCGGGC,1.03
5,TTAGAGCAA,1.02
6,CATCAACATG,1.03
7,TCGGTCGCTA,1.05
8,ACAAGGATAT,1.04
9,ACTCTTTAT,0.998
10,GGCACGGGCA,1.04
11,TACACCTAAG,1.05
12,TCTCAGTTAT,0.986
13,GGGCCAGACT,1.02
14,TTCTAGAAA,0.96
15,GCGAGAGGAA,1.01
16,CACGTTACGA,1.56
17,AACATCTATT,1.01
18,AGGGCATGTC,1.04
19,GCCACCTCA,1.02
20,GAGAGAGTCG,1.02
